# PubChem BioAssay AID504332 (National Center for Advancing Translational Sciences (NCATS), 2011)
# The whole screen tested about 350,000 compounds, of which about 31,000 (8.9%) were called active. Inconclusive results, whose numbers are uncertain, are shown with a selection of clear calls. Calls come from the whole dose curve; as a rule, active = well fitted inhibition curve with a large enough effect; inconclusive = small, poorly fitted or top-dose-only effect; inactive = no such curve, though single readings can be large or run the other way. Where the call is inconclusive, the potency comes from a doubtful curve fit.
# Molecular target: Histone-lysine N-methyltransferase EHMT2 (Homo sapiens) (UniProt Q96KQ7)
# Chain of UniProt Q96KQ7 (Q96KQ7 whole entry, looked up): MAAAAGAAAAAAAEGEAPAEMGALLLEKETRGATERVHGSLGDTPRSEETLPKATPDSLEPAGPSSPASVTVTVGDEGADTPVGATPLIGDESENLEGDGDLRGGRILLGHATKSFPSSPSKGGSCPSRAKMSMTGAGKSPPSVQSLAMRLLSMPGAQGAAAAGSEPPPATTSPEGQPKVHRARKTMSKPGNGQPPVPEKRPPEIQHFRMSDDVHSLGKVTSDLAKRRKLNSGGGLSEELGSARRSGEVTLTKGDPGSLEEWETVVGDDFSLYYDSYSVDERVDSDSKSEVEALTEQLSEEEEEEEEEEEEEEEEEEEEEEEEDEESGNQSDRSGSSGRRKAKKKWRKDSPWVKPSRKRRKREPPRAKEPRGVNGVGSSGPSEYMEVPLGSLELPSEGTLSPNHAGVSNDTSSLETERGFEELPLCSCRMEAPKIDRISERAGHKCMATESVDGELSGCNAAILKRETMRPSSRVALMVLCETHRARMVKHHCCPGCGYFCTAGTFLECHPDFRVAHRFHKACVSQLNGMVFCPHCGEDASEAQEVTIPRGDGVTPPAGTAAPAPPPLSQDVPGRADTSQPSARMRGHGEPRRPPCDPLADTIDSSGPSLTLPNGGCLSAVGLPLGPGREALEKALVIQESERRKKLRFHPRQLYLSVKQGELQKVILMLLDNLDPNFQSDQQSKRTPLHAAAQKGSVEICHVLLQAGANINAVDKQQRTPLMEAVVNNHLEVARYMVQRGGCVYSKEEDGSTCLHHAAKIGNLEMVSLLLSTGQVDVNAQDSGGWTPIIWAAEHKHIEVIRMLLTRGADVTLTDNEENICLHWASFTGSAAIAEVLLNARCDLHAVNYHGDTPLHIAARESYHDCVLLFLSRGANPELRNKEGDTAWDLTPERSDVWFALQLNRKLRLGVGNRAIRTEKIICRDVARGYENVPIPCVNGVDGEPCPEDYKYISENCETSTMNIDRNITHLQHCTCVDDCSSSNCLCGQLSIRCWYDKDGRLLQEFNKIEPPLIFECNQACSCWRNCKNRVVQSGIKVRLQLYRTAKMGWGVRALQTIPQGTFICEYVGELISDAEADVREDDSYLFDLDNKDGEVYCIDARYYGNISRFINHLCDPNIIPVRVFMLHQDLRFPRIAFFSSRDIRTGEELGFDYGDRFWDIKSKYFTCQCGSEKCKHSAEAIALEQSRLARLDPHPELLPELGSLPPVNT
# Experiment: qHTS Assay for Inhibitors of Histone Lysine Methyltransferase G9a; note: nearly all actives have a fitted effect of over 75% in size
# Details: G9a H3K9 monomethylation, AlphaScreen, 2 h; activity, negative = inhibition: at 59 µM (top of the series) unless noted
# Procedure, shortened: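 Signal arises when biotinylated H3K9 peptide, once monomethylated, bridges streptavidin donor and antibody-captured acceptor beads. Enzyme at 20 nM was preincubated 15 min with test compounds; peptide 500 nM and SAM 20 uM then reacted for 2 h.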
# % is set by controls: 0 for no effect and ±100 for the full control effect; potency is the fitted concentration of half-maximal effect; tags give direction and shape of the fitted curve.
Compound,Potency,"activity, negative = inhibition"
CCC(CC)c1nnc(NC(=O)c2cc(C(=O)OC)cc([N+](=O)[O-])c2)s1,active: 8.91 µM,–
O=C(Nc1ccc(Cl)c([N+](=O)[O-])c1)C(Sc1ccccc1)c1ccccc1 (stereo not given),"inconclusive: 89.1 µM [inhibitor, single point]",–
CN1CCN(CCC(=O)N/N=C/C=C2\N(C)c3ccccc3C2(C)C)CC1,active: 31.6 µM,–
Cc1ccc2c(c1)c1nnc(SCC(=O)Nc3ccc(N(C)C)cc3)nc1n2CC(=O)O,active: 25.1 µM,–
S=C(NCc1ccco1)N1CCC(c2nc3ccccc3o2)CC1,"inconclusive: 79.4 µM [inhibitor, single point]",–
CCOC(=O)C1=C(c2ccccc2)N=c2s/c(=C\c3cc(OC)c(OC)c(OC)c3)c(=O)n2C1c1cccs1 (stereo not given),"inconclusive: 2.24 µM [inhibitor, partial curve, poor fit]",–
COc1ccc(-c2nn(C)c3sc(C(=O)Nc4cc(OC)c(OC)c(OC)c4)cc23)cc1OC,"inconclusive: 11.2 µM [inhibitor, partial curve]",–
COc1cc2c(cc1O)CCC1C2CC[C@]2(C)[C@@H](O)CC[C@@H]12 (stereo not given in full),active: 39.8 µM,–
COc1ccc(C(c2nnnn2C2CCCC2)N2CCN(c3ccccc3)CC2)cc1 (stereo not given),"inconclusive: 25.1 µM [inhibitor, single point]",–
CCOc1ccccc1OCCC(=O)N1CCN(S(=O)(=O)c2ccccc2[N+](=O)[O-])CC1,"inconclusive: 12.6 µM [inhibitor, single point]",–
COC(=O)c1cc(NC(=O)c2cc(-c3ccc(C(F)(F)F)cc3)oc2C(F)(F)F)ccc1N1CCOCC1,"inconclusive: 79.4 µM [inhibitor, single point]",–
O=C(O)CSc1nnc(CNc2ccc(Cl)cc2)n1Cc1ccccc1,–,inactive: -32.6% [at 2.33 µM]
COc1ccc(S(=O)(=O)N2CCN(C(=O)c3cc(C)oc3C)CC2)cc1,"inconclusive: 79.4 µM [inhibitor, partial curve, poor fit]",–
CC(=O)N1CCc2ccc(S(=O)(=O)N3CCN(C)CC3)cc21,inactive,–
Cc1c(C(=O)Nc2ccc3c(c2)OCCO3)sc2ncnc(N3CCCCC3C)c12 (stereo not given),"inconclusive: 35.5 µM [inhibitor, partial curve, poor fit]",–
CN1CCN(CCN2CCn3c2nc2ccccc23)CC1,"inconclusive: 25.1 µM [inhibitor, single point]",–
S=C(Nc1ccc2c(c1)OCO2)NC1CCN(Cc2ccccc2)CC1,"inconclusive: 79.4 µM [inhibitor, single point]",–
Cc1ccc(C)c(NC(=O)CN2C(=O)CNC2=O)c1,"inconclusive: 3.16 µM [inhibitor, single point]",–
Cc1nc(N2CCCCC2)c2ccsc2n1,active: 20 µM,–
COc1ccc(C2C(=O)c3ccccc3C2=O)cc1OC,"inconclusive: 56.2 µM [inhibitor, partial curve]",–
COc1cc(/C=N/NC(=O)/C(=C\c2ccc([N+](=O)[O-])cc2)NC(=O)c2ccccc2)cc(OC)c1O,active: 44.7 µM,–
Cc1ccccc1OCC(=O)Nc1nnc(SCc2cc(=O)n3cccc(C)c3n2)s1,"inconclusive: 0.708 µM [inhibitor, partial curve, poor fit]",–
O=C1CC(N2CCN(c3ccc(Cl)cc3)CC2)C(=O)N1c1ccccc1 (stereo not given),"inconclusive: 70.8 µM [inhibitor, single point]",–
CCOC(=O)Cc1nn(C)c(=O)c2ccccc12,inactive,–

Compound,Potency,"activity, negative = inhibition"
CCCN1C(=O)/C(=C\C=C2/C=CN(CC)c3ccccc32)SC1=S,active: 7.94 µM,–
O=C(NC12CC3CC(CC(C3)C1)C2)c1cc([N+](=O)[O-])ccc1N1CCOCC1,"inconclusive: 31.6 µM [inhibitor, partial curve, poor fit]",–
CCCOc1ccc(C(=O)Nc2cc(-c3nc4ccccc4[nH]3)ccc2C)cc1,inactive,–
COc1cccc(CN2CCCN(Cc3ccc(F)cc3)S2(=O)=O)c1,"inconclusive: 7.08 µM [inhibitor, single point]",–
CCCCN(CC)c1nc(-c2ccncc2)nc2ccccc12,active: 3.55 µM,–
CNC(=O)c1c(C)nn(-c2ccc(F)c(Cl)c2)c1-c1cc(C)on1,inactive,–
COc1ccc(C(=O)Nc2ccccc2C(=O)NC(Cc2ccc(O)cc2)C(=O)NNC(=O)c2ccncc2)cc1 (stereo not given),active: 1.41 µM,–
CCN(CC)c1ccc(NC(=O)Cn2cc3c(n2)CCCC3)c(C)c1,active: 10 µM,–
Cn1cc(S(=O)(=O)N2CCc3ccccc32)cc1C(=O)Nc1ccc(C(F)(F)F)cc1,"inconclusive: 12.6 µM [inhibitor, partial curve, poor fit]",–
CC1Cc2cc(S(=O)(=O)CCC(=O)Nc3ccc(F)cc3Cl)ccc2N1C(=O)C1CC1 (stereo not given),inactive,–
COc1cc(CNc2ccccc2SC)ccc1O,"inconclusive: 7.94 µM [inhibitor, full curve, poor fit]",–
CCO[C@H]1OC(C(=O)N2CCCCCCC2)=C[C@@H](C2CCCCC2)[C@@H]1CCCO,–,inconclusive: -53.3% [inhibitor]
COc1ccc(N2CCN(C(=O)NC3CC(=O)N(c4ccc(OC)cc4)C3)CC2)cc1 (stereo not given),"inconclusive: 89.1 µM [inhibitor, single point]",–
CCOc1cc(C(=S)N2CCOCC2)ccc1OC(=O)c1cccc(C)c1,"inconclusive: 79.4 µM [inhibitor, single point]",–
O=C(NC(=S)Nc1ncccn1)c1ccccc1Cl,active: 79.4 µM,–
COc1ccc(N2CCN(C(CNC(=O)c3c(F)cccc3F)c3ccc4c(c3)OCO4)CC2)cc1 (stereo not given),active: 10 µM,–
Cc1ccc(S(=O)(=O)NCC(=O)OCC(=O)N2CCc3ccccc32)cc1,inactive,–
O=C(N[C@@H](Cc1c[nH]c2ccccc12)C(=O)O)c1ccccc1Cl,"inconclusive: 28.2 µM [inhibitor, partial curve, poor fit]",–
O=[N+]([O-])c1cc(Cl)c(O)c2ncccc12,active: 25.1 µM,–
OC(CN1CCOCC1)CN(c1ccccc1)c1ccccc1 (stereo not given),"inconclusive: 89.1 µM [inhibitor, partial curve, poor fit]",–
Cc1ccc(-n2c(=O)c3ccc(C(=O)NCc4ccccc4Cl)cc3n(Cc3cccc(F)c3)c2=O)cc1,"inconclusive: 3.98 µM [inhibitor, single point]",–
Cn1cccc1Cc1nnc(SCC(=O)N2CCc3ccccc32)n1CCc1ccccc1,"inconclusive: 39.8 µM [inhibitor, single point]",–
CCN(CC)CCN(C(=O)c1cccc(N2C(=O)CCC2=O)c1)c1nc2cc3c(cc2s1)OCO3,active: 50.1 µM,–
Cc1ccc(/C([O-])=C(/C(=S)NCc2ccccc2)[n+]2ccccc2)cc1[N+](=O)[O-],active: 20 µM,–

Compound,Potency,"activity, negative = inhibition"
NC(=O)c1ccc(N2CCN(c3ccccc3O)CC2)c([N+](=O)[O-])c1,"inconclusive: 44.7 µM [inhibitor, partial curve, poor fit]",–
O=C(/C=C/c1ccc(Br)o1)Nc1nccs1,active: 44.7 µM,–
COc1ccc(C(=O)NC(=S)NNC(=O)c2cnccn2)cc1,"inconclusive: 31.6 µM [inhibitor, single point]",–
COc1ccc(C(C(=O)NCC2CCCO2)N(C(=O)Cn2nnc3ccccc32)c2ccccc2C(C)=O)cc1OC (stereo not given),inactive,–
O=C(N/N=C/c1ccc(N2CCOCC2)cc1)c1ccc(NS(=O)(=O)c2cccs2)cc1,"inconclusive: 39.8 µM [inhibitor, partial curve]",–
O=C(c1cc(C2CC2)on1)N1CCN(c2ccc(F)cc2)CC1,inactive,–
CCc1ccc(C2C(C#N)=C(N)OC3=C2C(=O)CCC3)s1 (stereo not given),inactive,–
c1ccc(CSc2ccc(-c3cccnc3)nn2)nc1,inactive,–
CCc1nnc(NC(=O)CSc2nnc(-c3cccnc3)n2C)s1,"inconclusive: 89.1 µM [inhibitor, partial curve, poor fit]",–
O=C1C(c2ccncc2)=C(O)c2ccccc21,"inconclusive: 14.1 µM [inhibitor, partial curve, poor fit]",–
CCCOC(=O)/C(C)=N\NC(=O)c1ccco1,"inconclusive: 28.2 µM [inhibitor, full curve]",–
COc1ccc(Br)cc1/C=N/n1c(-c2ccccc2)n[nH]c1=S,active: 3.55 µM,–
COc1ccc(C/C(C)=N/NC(=S)Nc2ccccc2)cc1,"inconclusive: 5.01 µM [inhibitor, full curve, poor fit]",–
N#Cc1ccc(CN2CCN(CC(=O)Nc3ccccc3C(=O)NC3CC3)CC2)cc1,"inconclusive: 28.2 µM [inhibitor, single point]",–
COc1cccc(NC(=O)C2CC(=O)N(c3ccc(Br)cc3)C2)c1 (stereo not given),inactive,–
CCOC(=O)CNC(=O)CSc1ccc2nnc(-c3cccnc3)n2n1,"inconclusive: 89.1 µM [inhibitor, partial curve, poor fit]",–
O=C(CN1CCN(c2ccccn2)CC1)Nc1ccc(F)cc1,active: 6.31 µM,–
O=S(=O)(c1ccc(NCCc2c[nH]c3ccccc23)nc1)N1CCOCC1,"inconclusive: 31.6 µM [inhibitor, partial curve, poor fit]",–
CCN(CC)S(=O)(=O)c1ccc2oc(C(=O)N3CCOCC3)c(C)c2c1,–,inactive: -1.14% [at 12.7 µM]
Cc1cccc(CNC(=O)c2ccc(Cn3c(SCc4cccc(F)c4)nc4cccnc43)cc2)c1,active: 3.16 µM,–
Cc1ccc(C(=O)Oc2ccc(Br)cc2C(=S)N2CCOCC2)cc1,active: 39.8 µM,–
COCCN(CCOC)C(=O)c1ccc(SCc2ccc(C)cc2)c([N+](=O)[O-])c1,active: 56.2 µM,–
